Publication PMC4336329 (PLoS ONE, 2015)
Hit rate of the full screen: of about 310,000 compounds, about 2,200 (0.71%) showed an effect of 50% or more. The effect is printed as a negative number. The list shows a part of the results.

molecular target: human ether-à-go-go-related gene (hERG) potassium channel (human, UniProt Q12809); test: primary screen, population patch clamp on CHO cells stably expressing hERG
Sequence (Q12809 whole entry, looked up): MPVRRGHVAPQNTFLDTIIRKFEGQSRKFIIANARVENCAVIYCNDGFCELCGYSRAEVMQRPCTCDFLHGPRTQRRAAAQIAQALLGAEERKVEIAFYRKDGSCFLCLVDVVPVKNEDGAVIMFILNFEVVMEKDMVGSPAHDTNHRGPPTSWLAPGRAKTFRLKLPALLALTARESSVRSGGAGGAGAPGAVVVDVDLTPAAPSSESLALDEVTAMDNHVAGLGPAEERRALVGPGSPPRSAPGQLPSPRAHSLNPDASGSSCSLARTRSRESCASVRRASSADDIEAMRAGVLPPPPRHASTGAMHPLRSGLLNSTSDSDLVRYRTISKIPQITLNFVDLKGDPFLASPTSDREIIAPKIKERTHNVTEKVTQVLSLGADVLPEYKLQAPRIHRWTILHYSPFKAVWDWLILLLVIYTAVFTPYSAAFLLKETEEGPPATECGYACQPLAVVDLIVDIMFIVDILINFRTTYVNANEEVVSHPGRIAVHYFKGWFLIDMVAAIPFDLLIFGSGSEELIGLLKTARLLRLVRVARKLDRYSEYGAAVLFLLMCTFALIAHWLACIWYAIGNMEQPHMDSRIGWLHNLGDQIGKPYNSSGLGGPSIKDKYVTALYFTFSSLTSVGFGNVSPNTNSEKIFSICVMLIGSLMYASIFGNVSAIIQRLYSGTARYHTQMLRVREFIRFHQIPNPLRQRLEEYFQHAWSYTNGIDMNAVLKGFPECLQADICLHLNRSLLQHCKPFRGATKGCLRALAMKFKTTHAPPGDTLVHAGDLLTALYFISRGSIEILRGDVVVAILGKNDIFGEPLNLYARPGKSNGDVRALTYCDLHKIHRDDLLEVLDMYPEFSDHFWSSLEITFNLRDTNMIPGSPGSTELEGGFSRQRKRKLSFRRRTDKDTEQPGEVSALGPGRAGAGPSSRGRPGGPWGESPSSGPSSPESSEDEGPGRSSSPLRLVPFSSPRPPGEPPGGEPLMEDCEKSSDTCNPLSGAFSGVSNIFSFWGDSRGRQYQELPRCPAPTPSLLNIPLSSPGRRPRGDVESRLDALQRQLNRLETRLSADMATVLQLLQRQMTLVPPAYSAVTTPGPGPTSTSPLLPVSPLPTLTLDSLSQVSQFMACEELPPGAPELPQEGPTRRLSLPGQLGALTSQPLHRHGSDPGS

Structure (SMILES)	hERG current change (%, negative = inhibition) at 1uM [%]
S=C1NC[C@H](CC2CCCCC2)N1CCc1cccc2ccccc12	13.2
Cc1ccc(CSc2ccc(-c3ccco3)nn2)cc1	8.32
CCCN(CCC)C1Sc2ccc(C(=O)OC)cc2NC1=O (stereo not drawn)	-11
COC(=O)C1=C(c2cc3ccccc3o2)C[C@@H]2CC[C@H]1N2C(=O)NCc1ccc(F)cc1	3.38
COc1ccccc1N1CCN(C(=O)CN(c2ccc(C)c(C)c2)S(C)(=O)=O)CC1	3.23
O=C(Nc1ccnn1C1CCN(Cc2ccc(CO)o2)CC1)c1ccccc1	-0.976
CCCN(CC(=O)Nc1ccccc1OC)C(=O)c1ccc(S(=O)(=O)NCc2ccco2)cc1	3.59
Cc1ccc2cc(CCNC(=O)c3ccc(S(=O)(=O)N4CCOCC4)cc3)c(=O)[nH]c2c1	-21.8
COC(=O)c1ccc(C)c(NC(=O)C2COc3ccccc3O2)c1 (stereo not drawn)	10.7
O=C(Cn1nc(Cc2ccncc2)c2ccccc2c1=O)Nc1cccnc1Cl	4.36
CCN1CCCC1CNCc1ccccc1OCc1ccc(F)cc1.Cl (stereo not drawn)	-21.4
COc1cccc(NC(=O)NNC(=O)CCc2ccc(O)c(O)c2)c1	17.2
O=C(CSc1nnc(NC(=O)c2cccc(F)c2)s1)NC1CCCC1	13
CCOc1ccc(/C=N/NC(=O)c2ccc(O)cc2)cc1CN1CC2CC(C1)c1cccc(=O)n1C2 (stereo not drawn)	8.24
COC(=O)CSc1nc2ncccc2[nH]1	-0.295
O=C(CCC(=O)OCc1ccc([N+](=O)[O-])cc1)Nc1ccc(F)cc1	10.4
CCc1ccc(N2C(=O)CC(N3CCC(C(=O)OC)CC3)C2=O)cc1 (stereo not drawn)	4.68
CC1(C)NCCN2C(=O)CSC21.Cl (stereo not drawn)	10.3
CC1(c2nnc(-c3ccncc3)o2)CC(c2cccnc2)=NO1 (stereo not drawn)	22.1
O=C(/C=C/c1ccc(N2CCC(c3ccccc3)=N2)cc1)c1ccccc1	1.77
O=C(COC(=O)CNC(=O)c1ccccc1)NCCc1ccccc1	-0.342
CCC1CCCCN1C(=O)COC(=O)CSc1ccc(C(N)=O)cc1[N+](=O)[O-] (stereo not drawn)	4.3
CCc1ccc(CN2CCN(C(=O)c3ccco3)CC2)cc1.O=C(O)C(=O)O	5.48
O=C(OCCN1CCN(c2ncc(C(F)(F)F)cc2Cl)CC1)c1ccc(Cl)cc1	12
CCOC(=O)c1[nH]ncc1CN1CCCC(C(=O)c2ccc(C(C)(C)C)cc2)C1 (stereo not drawn)	6.55
COc1ccc(NC(=O)CSc2nnc(Cc3ccc(C)cc3)c(=O)n2N)cc1	3.26
Cc1onc(-c2ccccc2Cl)c1C(=O)Nc1ccc(-c2nnc3n2CCCCC3)cc1	3.11

Structure (SMILES)	hERG current change (%, negative = inhibition) at 1uM [%]
Cc1nccn1CCN(C)Cc1cn(Cc2ccccc2)nc1-c1ccc2c(c1)OCO2	-8.22
Cc1ccc(C)c(N2CCN(CC(=O)Nc3ccc4[nH]c(=O)[nH]c4c3)CC2)c1	2.63
COC(=O)c1cn(CCOc2ccccc2)c2ccccc12	7.42
CCSc1nc2c([nH]c3ccccc32)c(=O)n1C	4.49
Cc1ccccc1CNC(=O)COc1ccccc1	12.3
CCc1ccc(Nc2ncc3c(n2)CC(c2ccc(OC)cc2)CC3=O)cc1 (stereo not drawn)	14.4
C#CCOCCOCCOCCNc1nc(N2CCN(C(=O)[C@H]([C@@H](C)CC)n3cc([C@@H](N)CC(C)C)nn3)CC2)nc(N2CCN(C(=O)[C@H](CCCCN)n3cc([C@@H](N)C(C)CC)nn3)CC2)n1.Cl (stereo partly drawn)	14.4
COCCn1c(C)cc(C(=O)CSc2nc3ccccc3c(=O)n2Cc2ccco2)c1C	2.93
O=C1/C(=C/c2cccc(F)c2)Oc2cc(O)ccc21	13.2
CC(=O)N(C1=NCCCS1)c1ccccc1Cl	11.5
Cc1cc(C)nc(NC2=NCC(=O)N2c2ccc(F)c(Cl)c2)n1	5.25
Cc1noc(C)c1COc1ccccc1C(=O)NNC(=O)c1ccc(F)cc1	13.9
CC(C)OCCCn1c(SCC(=O)N2CCCC2=O)nc2ccccc2c1=O	7.56
CCS(=O)(=O)CCSc1nc(C)cc(C)c1C#N	9.97
CCCCCCOc1ccc(/C=N/NC(=O)C2CC2)cc1	12.4
COc1cc(NC(=O)COC(=O)/C=C/c2ccc(OC)c(OC)c2)cc(OC)c1	2.06
COCCn1c(-c2ccc(OC(F)(F)C(F)C(F)(F)F)cc2)nc2c1c(=O)[nH]c(=O)n2CC(C)C (stereo not drawn)	0.184
CN(Cc1ccccc1F)C(=O)CN1CCN(S(=O)(=O)c2ccc3c(c2)OCCCO3)CC1	0.175
CCCCC(Sc1nc(N)c(NC(=O)c2ccco2)c(=O)[nH]1)C(=O)O (stereo not drawn)	10.8
Cc1nn(Cc2ccc(Cl)c(Cl)c2)c(C)c1NC(=O)c1cc(-c2ccc3c(c2)OCO3)on1	12.1
C=CCN(CC=C)S(=O)(=O)c1ccc(NC(=S)NC(=O)c2ccco2)cc1	10.3
COc1ccccc1CNC(=O)CN(C)S(=O)(=O)c1ccc(F)cc1	12.6
CCCCNC(=O)C(=O)N/N=C/c1ccc(OCc2ccccc2)cc1	7.28
O=C(NC1(C(F)(F)F)C(=O)Nc2c1c(=O)[nH]c(=O)n2Cc1ccco1)C1CC1 (stereo not drawn)	0.186
N#Cc1ccc(OCC(=O)NCC2(N3CCCCC3)CCCCC2)cc1	-34.6
COc1ccc(C(=O)Cc2cc3cccc(OC)c3oc2=O)cc1	14.6
O=C(N/N=C/c1c(Cl)cccc1Cl)c1n[nH]c2c1CCCC2	4.97
